From patent US9873709B2 (priority 2013, dated 2018)

molecular target: isolated recombinant JAK1 kinase domain (Homo sapiens (Human), UniProt P23458); conditions: read-out: JAK1 Ki; isolated recombinant JAK1 kinase domain, 25 μM ATP
Sequence (P23458 875-1153): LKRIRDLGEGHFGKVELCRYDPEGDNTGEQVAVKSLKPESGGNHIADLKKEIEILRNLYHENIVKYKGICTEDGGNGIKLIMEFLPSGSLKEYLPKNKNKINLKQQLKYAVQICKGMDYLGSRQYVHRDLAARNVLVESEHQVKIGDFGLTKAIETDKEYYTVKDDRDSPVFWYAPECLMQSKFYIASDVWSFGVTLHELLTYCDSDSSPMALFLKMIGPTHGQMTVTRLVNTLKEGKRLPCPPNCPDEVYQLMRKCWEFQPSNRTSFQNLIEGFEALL

SMILES | Ki [nM]
CCOC(=O)N1CC=C(c2cccn3nc(Nc4ccc(C(=O)NCC5CCCN5)cc4)nc23)CC1 (stereo not drawn) [Example 2-233, ethyl 4-[2-[4-(pyrrolidin-2-ylmethylcarbamoyl)anilino]-[1,2,4]triazolo[1,5-a]pyridin-8-yl]-3,6-dihydro-2H-pyridine-1-carboxylate] | 2.8
CCOC(=O)N1CC=C(c2cccn3nc(Nc4ccc(C(=O)N5CCC(Cc6ccccn6)C5)cc4)nc23)CC1 (stereo not drawn) [Example 2-234, ethyl 4-[2-[4-[3-(2-pyridylmethyl)pyrrolidine-1-carbonyl]anilino]-[1,2,4]triazolo[1,5-a]pyridin-8-yl]-3,6-dihydro-2H-pyridine-1-carboxylate] | 3.72
CCOC(=O)N1CC=C(c2cccn3nc(Nc4ccc(C(=O)N5CCCCC5Cc5ccccn5)cc4)nc23)CC1 (stereo not drawn) [Example 2-235, ethyl 4-[2-[4-[2-(2-pyridylmethyl)piperidine-1-carbonyl]anilino]-[1,2,4]triazolo[1,5-a]pyridin-8-yl]-3,6-dihydro-2H-pyridine-1-carboxylate] | 1.68
CCOC(=O)N1CC=C(c2cccn3nc(Nc4ccc(C(=O)N5CCN(CCOC)CC5)cc4)nc23)CC1 [Example 2-236, ethyl 4-[2-[4-[4-(2-methoxyethyl)piperazine-1-carbonyl]anilino]-[1,2,4]triazolo[1,5-a]pyridin-8-yl]-3,6-dihydro-2H-pyridine-1-carboxylate] | 2.94
CCOC(=O)N1CC=C(c2cccn3nc(Nc4ccc(C(=O)N(C)CCc5cccnc5)cc4)nc23)CC1 [Example 2-237, ethyl 4-[2-[4-[methyl-[2-(3-pyridyl)ethyl]carbamoyl]anilino]-[1,2,4]triazolo[1,5-a]pyridin-8-yl]-3,6-dihydro-2H-pyridine-1-carboxylate] | 2.37
CCOC(=O)N1CC=C(c2cccn3nc(Nc4ccc(C(=O)N5CCN(CC6CC6)CC5)cc4)nc23)CC1 [Example 2-238, ethyl 4-[2-[4-[4-(cyclopropylmethyl)piperazine-1-carbonyl]anilino]-[1,2,4]triazolo[1,5-a]pyridin-8-yl]-3,6-dihydro-2H-pyridine-1-carboxylate] | 2.88
CCOC(=O)N1CC=C(c2cccn3nc(Nc4ccc(C(=O)N5CCCC5Cc5ccccn5)cc4)nc23)CC1 (stereo not drawn) [Example 2-239, ethyl 4-[2-[4-[2-(2-pyridylmethyl)pyrrolidine-1-carbonyl]anilino]-[l,2,4]triazolo[1,5-a]pyridin-8-yl]-3,6-dihydro-2H-pyridine-1-carboxylate] | 3.21
CCOC(=O)N1CC=C(c2cccn3nc(Nc4ccc(C(=O)N5CCCC(O)(CN6CCCC6)CC5)cc4)nc23)CC1 (stereo not drawn) [Example 2-241, ethyl 4-[2-[4-[4-hydroxy-4-(pyrrolidin-1-ylmethyl)azepane-1-carbonyl]anilino]-[1,2,4]triazolo[1,5-a]pyridin-8-yl]-3,6-dihydro-2H-pyridine-1-carboxylate] | 1.08
CCOC(=O)N1CC=C(c2cccn3nc(Nc4ccc(C(=O)N5CCCC(CCN(C)C)C5)cc4)nc23)CC1 (stereo not drawn) [Example 2-242, ethyl 4-[2-[4-[3-[2-(dimethylamino)ethyl]piperidine-1-carbonyl]anilino]-[1,2,4]triazolo[1,5-a]pyridin-8-yl]-3,6-dihydro-2H-pyridine-1-carboxylate] | 6.4
CCOC(=O)N1CC=C(c2cccn3nc(Nc4ccc(C(=O)N5CCN(C)CC5C(=O)N(C)C)cc4)nc23)CC1 (stereo not drawn) [Example 2-243, ethyl 4-[2-[4-[2-(dimethylcarbamoyl)-4-methyl-piperazine-1-carbonyl]anilino]-[1,2,4]triazolo[1,5-a]pyridin-8-yl]-3,6-dihydro-2H-pyridine-1-carboxylate] | 5.47
CCOC(=O)N1CC=C(c2cccn3nc(Nc4ccc(C(=O)NCc5ccc(C)nc5)cc4)nc23)CC1 [Example 2-245, ethyl 4-[2-[4-[(6-methyl-3-pyridyl)methylcarbamoyl]anilino]-[1,2,4]triazolo[1,5-a]pyridin-8-yl]-3,6-dihydro-2H-pyridine-1-carboxylate] | 3.04
CCOC(=O)N1CC=C(c2cccn3nc(Nc4ccc(C(=O)N5CC[C@H]6CNC[C@H]65)cc4)nc23)CC1 [Example 2-246, ethyl 4-[2-[4-[(3aS,6aS)-3,3a,4,5,6,6a-hexahydro-2H-pyrrolo[2,3-c]pyrrole-1-carbonyl]anilino]-[1,2,4]triazolo[1,5-a]pyridin-8-yl]-3,6-dihydro-2H-pyridine-1-carboxylate] | 2.09
CCOC(=O)N1CC=C(c2cccn3nc(Nc4ccc(C(=O)N5CCCCC56CCCNC6)cc4)nc23)CC1 (stereo not drawn) [Example 2-247, ethyl 4-[2-[4-(1,8-diazaspiro[5.5]undecane-1-carbonyl)anilino]-[1,2,4]triazolo[1,5-a]pyridin-8-yl]-3,6-dihydro-2H-pyridine-1-carboxylate] | 4.37
CCOC(=O)N1CC=C(c2cccn3nc(Nc4ccc(C(=O)N5C[C@H]6CN[C@H]6C5)cc4)nc23)CC1 [Example 2-248, ethyl 4-[2-[4-[(1R,5R)-3,6-diazabicyclo[3.2.0]heptane-3-carbonyl]anilino]-[1,2,4]triazolo[1,5-a]pyridin-8-yl]-3,6-dihyro-2H-pyridine-1-carboxylate] | 4.13
CCOC(=O)N1CC=C(c2cccn3nc(Nc4ccc(C(=O)NCC5CCN(C)CC5)cc4)nc23)CC1 [Example 2-249, ethyl 4-[2-[4-[(1-methyl-4-piperidyl)methylcarbamoyl]anilino]-[1,2,4]triazolo[1,5-a]pyridin-8-yl]-3,6-dihydro-2H-pyridine-1-carboxylate] | 19.6
CCOC(=O)N1CC=C(c2cccn3nc(Nc4ccc(C(=O)N5CCN(c6ccccn6)CC5)cc4)nc23)CC1 [Example 2-251, ethyl 4-[2-[4-[4-(2-pyridyl)piperazine-1-carbonyl]anilino]-[1,2,4]triazolo[1,5-a]pyridin-8-yl]-3,6-dihydro-2H-pyridine-1-carboxylate] | 3.69
CCOC(=O)N1CC=C(c2cccn3nc(Nc4ccc(C(=O)N5CCC6(CCCNC6)CC5)cc4)nc23)CC1 [Example 2-252, ethyl 4-[2-[4-(2,9-diazaspiro[5.5]undecane-9-carbonyl)anilino]-[1,2,4]triazolo[1,5-a]pyridin-8-yl]-3,6-dihydro-2H-pyridine-1-carboxylate] | 2.34
O=C(CCC(F)(F)F)N1CC=C(c2cccn3nc(Nc4ccc(C(=O)N5CCC6(CCCNC6)C5)cc4)nc23)CC1 (stereo not drawn) [Example 2-253, 1-[4-[2-[4-(2,9-diazaspiro[4.5]decane-2-carbonyl)anilino]-[1,2,4]triazolo[1,5-a]pyridin-8-yl]-3,6-dihydro-2H-pyridin-1-yl]-4,4,4-trifluoro-butan-1-one] | 1.43
O=C(CCC(F)(F)F)N1CC=C(c2cccn3nc(Nc4ccc(C(=O)N5CCOC6(CCNCC6)C5)cc4)nc23)CC1 [Example 2-254, 4,4,4-trifluoro-1-[4-[2-[4-(1-oxa-4,9-diazaspiro[5.5]undecane-4-carbonyl)anilino]-[1,2,4]triazolo[1,5-a]pyridin-8-yl]-3,6-dihydro-2H-pyridin-1-yl]butan-1-one] | 1.37
O=C(NC1CCNC1)c1ccc(Nc2nc3c(C4=CCN(C(=O)CCC(F)(F)F)CC4)cccn3n2)cc1 (stereo not drawn) [Example 2-255, N-pyrrolidin-3-yl-4-[[8-[1-(4,4,4-trifluorobutanoyl)-3,6-dihydro-2H-pyridin-4-yl][1,2,4]triazolo[1,5 a]pyridin-2-yl]amino]benzamide] | 2.86
NC1CN(C(=O)c2ccc(Nc3nc4c(C5=CCN(C(=O)CCC(F)(F)F)CC5)cccn4n3)cc2)C1 [Example 2-256, 1-[4-[2-[4-(3-aminoazetidine-1-carbonyl)anilino]-[1,2,4]triazolo[1,5-a]pyridin-8-yl]-3,6-dihydro-2H-pyridin-1-yl]-4,4,4-trifluoro-butan-1-one] | 0.67
O=C(CCC(F)(F)F)N1CC=C(c2cccn3nc(Nc4ccc(C(=O)N5CCCC56CCCNC6)cc4)nc23)CC1 (stereo not drawn) [Example 2-257, 1-[4-[2-[4-(1,9-diazaspiro[4.5]decane-1-carbonyl)anilino]-[1,2,4]triazolo[1,5-a]pyridin-8-yl]-3,6-dihydro-2H-pyridin-1-yl]-4,4,4-trifluoro-butan-1-one] | 1.87
CN1CCOC2(C1)CN(C(=O)c1ccc(Nc3nc4c(C5=CCN(C(=O)CCC(F)(F)F)CC5)cccn4n3)cc1)C2 [Example 2-259, 4,4,4-trifluoro-1-[4-[2-[4-(8-methyl-5-oxa-2,8-diazaspiro[3.5]nonane-2-carbonyl)anilino]-[1,2,4]triazolo[1,5-a]pyridin-8-yl]-3,6-dihydro-2H-pyridin-1-yl]butan-1-one] | 0.97
O=C(CCC(F)(F)F)N1CC=C(c2cccn3nc(Nc4ccc(C(=O)N5CCN(C6CCC6)CC5)cc4)nc23)CC1 [Example 2-260, 1-[4-[2-[4-(4-cyclobutylpiperazine-1-carbonyl)anilino]-[1,2,4]triazolo[1,5-a]pyridin-8-yl]-3,6-dihydro-2H-pyridin-1-yl]-4,4,4-trifluoro-butan-1-one] | 1.83
CN(C)C(=O)C1(c2ccncc2)CCCN1C(=O)c1ccc(Nc2nc3c(C4=CCN(C(=O)CCC(F)(F)F)CC4)cccn3n2)cc1 (stereo not drawn) [Example 2-261, N,N-dimethyl-2-(4-pyridyl)-1-[4-[[8-[1-(4,4,4-trifluorobutanoyl)-3,6-dihydro-2H-pyridin-4-yl]-[1,2,4]triazolo[1,5-a]pyridin-2-yl]amino]benzoyl] pyrrolidine-2-carboxamide] | 1.67
CN1CCN(C(=O)C2COCCN2C(=O)c2ccc(Nc3nc4c(C5=CCN(C(=O)CCC(F)(F)F)CC5)cccn4n3)cc2)CC1 (stereo not drawn) [Example 2-262, 4,4,4-trifluoro-1-[4-[2-[4-[3-(4-methylpiperazine-1-carbonyl)morpholine-4-carbonyl]anilino]-[1,2,4]triazolo[1,5-a]pyridin-8-yl]-3,6-dihydro-2H-pyridin-1-yl]butane-1-one] | 0.91
CC1CC(C(=O)N2CC=C(c3cccn4nc(Nc5ccc(C(=O)N(C)C6CCN(C)CC6)cc5)nc34)CC2)C1 (stereo not drawn) [Example 2-263, N-methyl-4-[[8-[1-(3-methylcyclobutanecarbonyl)-3,6-dihydro-2H-pyridin-4-yl]-[1,2,4]triazolo[1,5-a]pyridin-2-yl]amino]-N-(1-methyl-4-piperidyl)benzamide] | 1.43
